The source of these data is ChEMBL document CHEMBL4888484, “Replenishing the malaria drug discovery pipeline: Screening and hit evaluation of the MMV Hit Generation Library 1 (HGL1) against asexual blood stage Plasmodium falciparum ,using a nano luciferase reporter read-out” (2022).

Screen size: about 150,000 compounds; about 540 (0.36%) showed an effect of 50% or more. Some of the results follow.

The assay concerns Plasmodium falciparum. The assay is described as follows: Primary screen in NF54 nanoGlo assay, in single point, at 2uM, 72h; a lower Z score goes with more inhibition. It counts as functional, Erythrocyte. The conditions noted are these: timepoint 72 hour.
As for `O=C(c1cn2c3c(cccc3c1=O)CCC2)N1CCCC1`, the “% Inhibition” value is -15% and the Z score was determined as 1.36.
For `CC(=O)N1CCCN(C(=O)c2cc(-c3ccccc3)[nH]n2)CC1`, in that order: -15% and 2.23.
The matching figures for `CC(C)[C@@H]1CCO[C@@H]1CNC(=O)NCc1ccc2occc2c1`: 31% and -3.54.
For `CCN(CC(=O)Nc1cccc(S(N)(=O)=O)c1)[C@H](COC)Cc1ccccc1`, the “% Inhibition” value is listed as -6% and the Z score was determined as 0.8.
The matching figures for `CC(=O)c1ccc(NC(=O)c2ncn3c2C(=O)N(C2CC2)[C@](C)(C(=O)NCc2ccc(C)cc2)C3)cc1`: -23% and 2.28.
For `Cc1cccc(NC(=O)CN2C(=O)CC(c3cccc(Cl)c3)=Nc3cccnc32)c1`, in that order: 28% and -3.2.
The matching figures for `CC#CCNc1ccc(C(N)=O)c(C)c1`: 0% and -0.06.
Take `O=C(NCc1cccs1)N1CCCCCCC1`: the “% Inhibition” value worked out at 1% and the Z score is listed as -0.1.
For `O=C1CN(S(=O)(=O)c2ccc3c(c2)CCO3)CCN1c1nccs1`, in that order: 4% and -0.46.
Take `CC(C)c1oncc1NC(=O)C[C@@H]1C=CCCC1`: the “% Inhibition” value is -9% and the Z score was found to be 0.93.
For `CCN(C1CCN(C)CC1)C1CN(C(=O)CC(C)C)C1`, in that order: -14% and 1.85.
For `CC1(C)Oc2ccc(NC(=O)c3ccco3)cc2NC1=O`, in that order: 30% and -4.27.
For the compound `O=C(c1ccco1)N1CCN(c2cc3c(nn2)CCCC3)CC1`, the “% Inhibition” value is -21% and the Z score came to 3.53.
Consider `COc1ccccc1/N=C(\NOC(C)=O)c1nonc1N`, for which the “% Inhibition” value was -2% and the Z score was 0.33.
As for `CC1(C)C2CCC1(C)C(OC(=O)CN1CCCCCC1)C2` (stereo not given), the “% Inhibition” value stood at 0% and the Z score is on record as -0.02.
The matching figures for `O=C(C[C@@H]1NC(=O)N(Cc2ccc3c(c2)OCO3)C1=O)Nc1cccc(O)c1`: -12% and 1.49.
The matching figures for `CS(=O)(=O)C[C@H]1CCCN(Cc2nc(-c3ccccc3)cs2)C1`: -25% and 2.18.
For `Cc1nnc(NC(=O)c2cn3c4c(c(N5CCN(C)CC5)c(F)cc4c2=O)OC[C@@H]3C)s1`, in that order: -9% and 1.13.
On to `Cn1c(C(=O)[C@H](C#N)C(=O)NC2CCCC2)cc2ccccc21`, for which the “% Inhibition” value is given as -3% and the Z score is on record as 0.4.
Consider `CCN1CC[C@H](NCc2ccc(OCCN3CCOCC3)c(Cl)c2)C1=O`, for which the “% Inhibition” value was determined as 33% and the Z score is recorded as -0.63.
The matching figures for `CCCc1oncc1C(=O)N1CCC[C@@]2(CNC(=O)O2)C1`: -5% and 0.65.
As to `CNS(=O)(=O)CC(=O)N[C@H](c1ccc(F)cc1F)C(C)(C)C`, the “% Inhibition” value is -9% and the Z score was 1.48.
For `Cc1cnn(-c2ccncc2NCc2ncc[nH]2)c1`, the “% Inhibition” value was -9% and the Z score stood at 0.98.
Turning to `CCO[C@H]1CCN(C(=O)Cc2cc3ccccc3c(=O)[nH]2)C1`, the “% Inhibition” value is 15% and the Z score is given as -1.91.
The matching figures for `CN1CCC(N(CCO)CCCc2c(F)cccc2Cl)CC1`: -5% and 0.86.
The matching figures for `Cc1cc(C)n([C@H]2[C@@H]3OC[C@@H](O3)[C@@H](NCc3ccc4c(c3)OCO4)[C@@H]2O)n1`: -10% and 1.26.
The matching figures for `CN1CCC[C@H]1c1nc(C2CN(C(=O)C3CCCC3)C2)no1`: 5% and -0.57.
As for `CN(C(=O)c1cc2ccccc2c(=O)n1C)C1CCCC1`, the “% Inhibition” value is listed as -9% and the Z score amounted to 1.38.
As for `Cc1cc(C)c2oc(N3CCC[C@H](n4cc(CN)nn4)C3)nc2c1`, the “% Inhibition” value was -8% and the Z score is recorded as 0.98.
Consider `C[C@H]1CN(C(=O)N2CCc3cnccc32)CCS1(=O)=O`, for which the “% Inhibition” value is reported as -5% and the Z score came out at 0.74.
`Cc1cnc(NC(=O)C(=O)NCc2cc(C(C)C)no2)s1`: the “% Inhibition” value is on record as -9% and the Z score is 1.33.
Regarding `O=C(Cn1nc2ccc(-c3ccccc3)nn2c1=O)Nc1cccc(Cl)c1`, the “% Inhibition” value was -3% and the Z score was 0.55.
As to `C[C@H](Oc1ccc(-c2ccccc2)c(F)c1)c1ccn(S(=O)(=O)c2ccc(F)cc2)n1`, the “% Inhibition” value is -12% and the Z score was found to be 2.32.
As to `O=C1CCCN1c1ccc(N2CCCC2=O)cc1`, the “% Inhibition” value is -25% and the Z score is 2.98.
For `CCc1nnc(CNC(=O)c2ccc(CN3CCC(C)CC3)o2)s1`, in that order: -13% and 1.49.
The matching figures for `Cc1ccc(C(=O)N(C2CCCC2)C2CCCC2)cn1`: 22% and -2.53.
For `Cc1ccc(O)c(C(=O)N2CC[S+]([O-])CCC2C)c1` (stereo not given), in that order: -4% and 0.57.
As for `CC[C@@H]1C(=O)NCCCN1C(=O)COc1ccc(Cl)cc1C`, the “% Inhibition” value is -11% and the Z score was determined as 1.31.
The matching figures for `Cc1ccc(C2=C[C@@H](c3ccccc3Cl)n3nc(NC(=O)c4ccccc4F)nc3N2)cc1`: -13% and 1.67.
`CCN(C(=O)Nc1ccc2c(c1)OCO2)[C@H]1COC[C@@H]1O`: the “% Inhibition” value is listed as -3% and the Z score was 0.52.
Regarding `O=C([C@H]1CCCN(C2CCN(Cc3cccnc3)CC2)C1)N1CCCCCCCC1`, the “% Inhibition” value is -15% and the Z score is reported as 2.93.
For `Cc1cc(F)ccc1S(=O)(=O)N1CC(N2CCCC2)C1`, the “% Inhibition” value was 1% and the Z score is -0.1.
For the compound `CC(C)(C)c1coc(N2C3CCC2CC(O)C3)n1` (stereo not given), the “% Inhibition” value is recorded as 10% and the Z score is reported as -1.3.
On to `Cc1nc(NCc2ccc(S(N)(=O)=O)cc2)c2nc(C)oc2n1`, for which the “% Inhibition” value came out at 5% and the Z score was -0.92.
The matching figures for `COc1cccc(Cc2nsc(N3CCC(Cc4ccccc4)CC3)n2)c1`: -9% and 0.94.
For `COc1c(C)ccc(NC(=O)N2CCC(c3nccs3)CC2)c1C`, the “% Inhibition” value came out at 4% and the Z score is -0.65.
For `FC(F)COCCc1nc(Cc2cccnc2)no1`, in that order: 3% and -0.47.
With `CC(C)(C)c1ccc(NC(=O)CCCc2nnc3ccccn23)cc1`, the “% Inhibition” value was -18% and the Z score turned out to be 2.25.
In the case of `CC(C)(C)OC(=O)N1C[C@@H]2C[C@H]1C(=O)NC[C@H]1O[C@H](CCOc3cc(-c4ccncc4)ccc3C(=O)N2)CC[C@@H]1O`, the “% Inhibition” value is 9% and the Z score is -1.18.
The matching figures for `CCn1cc(S(=O)(=O)NC[C@]2(O)CCCc3ccccc32)cn1`: -10% and 1.41.
For `CS(=O)(=O)N1CCC(Nc2ncnc3cc(Cl)ccc23)CC1`, in that order: 18% and -2.07.
As to `Cn1nc(C(F)(F)F)cc1CNC(=O)N[C@H]1CC12CCOCC2`, the “% Inhibition” value was -10% and the Z score stood at 1.02.
The matching figures for `CC/C=C/CC(=O)N1CCC[C@]2(CCCN(CC)C2)C1`: 1% and -0.11.
With `CCOc1nnc(CN2CC(n3cc(C)cn3)C2)s1`, the “% Inhibition” value is listed as -7% and the Z score came to 1.01.
Regarding `CN(Cc1cnccn1)C(=O)c1cc(F)cc(Cl)c1O`, the “% Inhibition” value was -9% and the Z score came to 1.42.
On to `OCC[C@]1(CNc2cnc3cc(Cl)c(Cl)cc3n2)CCOC1`, for which the “% Inhibition” value was -2% and the Z score is 0.47.
The matching figures for `Cc1ccc(NC(=O)Cn2c(-n3nc(C)cc3C)nc3c(c2=O)CCC3)c(C)c1`: 14% and -1.62.
For `CCCCCC(=O)N(O)[C@H]1CC(=O)N(c2ccc(Cl)cc2)C1=O`, in that order: -14% and 1.5.
The matching figures for `O=C(Cc1ccsc1)NCCc1c[nH]c2ccccc12`: -5% and 0.73.
In the case of `Cc1csc(CNc2ccn(C)n2)n1`, the “% Inhibition” value is reported as -3% and the Z score is 0.49.
As for `CC(=Cc1ccc(C)cc1)C(=O)N1CCC[C@H](c2c[nH]nn2)C1`, the “% Inhibition” value is recorded as -15% and the Z score is 1.99.
For the compound `COC[C@H]1[C@@H](NC(=O)c2ccc3cccc(Cl)c3n2)[C@H]2CCO[C@H]21`, the “% Inhibition” value is -2% and the Z score worked out at 0.22.
Take `O=C1CCCN1c1ccc(-c2csc(-c3ccc(F)cc3)n2)cc1`: the “% Inhibition” value is -11% and the Z score is reported as 1.79.
Take `COC(=O)c1cc(C)nc2c1c(=O)n(Cc1cccc(Cl)c1)c(=O)n2-c1ccccc1`: the “% Inhibition” value is on record as -14% and the Z score is 1.75.
For `O=C(CCc1n[nH]c2c1CCCC2)NCCNC(=O)c1ccccc1Cl`, in that order: 3% and -0.4.
The matching figures for `C=CCN1CCC[C@H]1C(=O)N1CCn2cncc2C1`: -7% and 1.03.
On to `O=C(C1CCN(c2ncnc3c2nc2n3CCCCC2)CC1)N1CCN(c2ccccc2F)CC1`, for which the “% Inhibition” value is on record as -9% and the Z score is reported as 1.4.
The matching figures for `OCCN(CCn1cnnc1)Cc1ccc(F)cc1`: -9% and 1.75.
For `Cc1noc(C)c1CCC(=O)N1CCC[C@H]1C1CCOCC1`, the “% Inhibition” value is -5% and the Z score was determined as 0.51.
`Cc1cccc([C@H]2C(=O)NCCN2C(=O)Cc2cncnc2)c1`: the “% Inhibition” value is reported as -9% and the Z score is 1.22.
The matching figures for `CCCn1cnnc1Cn1ccnc1-c1cccnc1`: -4% and 0.37.
The matching figures for `COc1ccc(CNC(=O)c2nnn3c2c(=O)[nH]c2cc(F)ccc23)cc1`: -1% and 0.26.
Turning to `CCc1ccc([C@@H]2CCCCCN2S(=O)(=O)Cc2ccon2)o1`, the “% Inhibition” value is -5% and the Z score is on record as 0.82.
On to `COCCS(=O)(=O)N[C@@H](C)c1ccc(C#N)cc1`, for which the “% Inhibition” value is -8% and the Z score stood at 1.26.
For `O=C(c1cccc(F)c1)N(Cc1nccn1Cc1ccc(Cl)c(Cl)c1)C1CC1`, in that order: -18% and 2.53.
The matching figures for `O=C1Nc2ccccc2C(O)=N[C@H]1CCC(=O)N1CCc2[nH]c3ccc(OC(F)(F)F)cc3c2C1`: -14% and 1.87.
For the compound `COc1c(C)cnc(CN2C=C(c3nc(-c4ccccc4)no3)C(C)=NS2(=O)=O)c1C`, the “% Inhibition” value is given as -1% and the Z score is recorded as 0.07.
Regarding `CCc1nccn1CCc1ccc(OC)cc1`, the “% Inhibition” value amounted to 2% and the Z score is reported as -0.18.
Consider `O=C(CN1CCN(Cc2ccccc2)CC1)NCc1ccccc1CN1CCOCC1`, for which the “% Inhibition” value is reported as -3% and the Z score was found to be 0.37.
Consider `O=C(COc1ccc(Cl)cc1)N1CC[C@@H](O)C1`, for which the “% Inhibition” value is -7% and the Z score worked out at 1.03.
Turning to `COc1cc(Cl)c(CN2CC(C(N)=O)O[C@H](C)C2)cc1Cl` (stereo not given in full), the “% Inhibition” value worked out at 4% and the Z score is reported as -0.36.
For `O=C(Nc1ccccc1)OC1CCCC(NC(=O)c2cnccn2)C1` (stereo not given), in that order: -15% and 1.77.
The matching figures for `CCc1cc2c(N3CC(c4ncc(C5CC5)cn4)C3)ncnc2s1`: 0% and -0.06.
As for `Cc1cnc(N)nc1NC1CCN(S(=O)(=O)c2ccccc2)CC1`, the “% Inhibition” value was 1% and the Z score is reported as -0.1.
The matching figures for `COc1cc([C@H](C)N)ccc1OCC(F)(F)F`: 5% and -0.69.

One may read the % Inhibition as the change of the read-out against control, counted positive when it falls.
